# Laboratory results as given in the supplement of paper PMC9446081.
# The campaign covered roughly 39,000 compounds. About 220 (0.56%) showed activity. This is one part of the list.
# System: Escherichia coli K-12 BW25113
# Assay: relative growth (OD600 normalised to plate interquartile mean) (fraction); higher = less growth inhibition, active = 0.2 or less
# Conditions: 50 µM; LB; incubation time: overnight (16-24 h)
# 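Note: static incubation at 37 °C against the wild-type strain, values averaged over two biological replicates.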
row,SMILES,relative growth
1,CCCNC(=O)N(C)C[C@H]1Oc2cc(C#Cc3ccccn3)ccc2S(=O)(=O)N([C@H](C)CO)C[C@@H]1C,inactive: 1.01
2,CC1(C)CC[C@]2(C(=O)O[C@@H]3O[C@H](CO)[C@@H](O[C@H]4OC[C@](O)(CO)[C@H]4O)[C@H](O)[C@H]3O)CC[C@]3(C)C(=CC[C@H]4[C@@]5(C)C[C@@H](O)[C@H](O)[C@@](C)(CO)[C@@H]5[C@H](O)C[C@]43C)[C@@H]2C1,inactive: 1.01
3,C[C@H](CO)N1C[C@H](C)[C@H](CN(C)Cc2ccc3c(c2)OCO3)Oc2c(NC(=O)C3CC3)cccc2C1=O,inactive: 0.997
4,C[C@@H]1CCCCO[C@@H](CN(C)Cc2ccc(Cl)c(Cl)c2)[C@H](C)CN([C@H](C)CO)C(=O)c2cc(NC(=O)C3CCCCC3)ccc2O1,inactive: 0.985
5,O=C(NCc1ccncc1)C(=O)NC[C@H]1OCCN1C(=O)c1ccc(Cl)cc1,inactive: 0.985
6,CCNc1nc(NCC)nc(OCC#N)n1,inactive: 1.03
7,C[C@H]1CN([C@@H](C)CO)C(=O)c2cc(NC(=O)CCC(F)(F)F)ccc2O[C@@H]1CN(C)Cc1ccc(Oc2ccccc2)cc1,inactive: 1
8,C[C@H](CO)N1C[C@H](C)[C@@H](CN(C)C(=O)Nc2cccc3ccccc23)Oc2c(NC(=O)c3nc4ccccc4s3)cccc2C1=O,inactive: 0.994
9,Cc1ccc(S(=O)(=O)Nc2ccc3c(c2)CC(=O)N([C@H](C)CO)C[C@@H](C)[C@@H](CN(C)C(=O)Nc2ccc(C(F)(F)F)cc2)O3)cc1,inactive: 0.971
10,C[C@@H]1CCCCO[C@H](CN(C)Cc2ccncc2)[C@@H](C)CN([C@@H](C)CO)C(=O)c2cc(NC(=O)C3CCCCC3)ccc2O1,inactive: 0.993
11,NS(=O)(=O)c1ccc(F)c([N+](=O)[O-])c1,inactive: 1.01
12,COC[C@H]1CN(C(=O)c2cccc(OC)c2)N1,inactive: 1.01
13,C=CC(=O)c1ccc2ccccc2c1,inactive: 0.998
14,C[C@H]1CN([C@@H](C)CO)C(=O)CCCn2nncc2CO[C@@H]1CN(C)C(=O)c1cc(-c2ccccc2)on1,inactive: 0.994
15,C[C@@H]1CN([C@@H](C)CO)C(=O)c2cc(C#CC3(O)CCCC3)cnc2O[C@H]1CN(C)C(=O)C1CCOCC1,inactive: 0.996
16,CCCN(C)C[C@H]1OCCCC[C@H](C)Oc2ccc(NC(=O)Nc3cccc4ccccc34)cc2C(=O)N([C@@H](C)CO)C[C@H]1C,inactive: 1.01
17,CC(=O)N(C)C[C@@H]1Oc2ncc(C#C[C@H](C)O)cc2C(=O)N([C@@H](C)CO)C[C@H]1C,inactive: 0.999
18,COCC(=O)Nc1ccc2c(c1)[C@H]1C[C@@H](CC(=O)N3CCOCC3)O[C@H](CO)[C@H]1O2,inactive: 0.991
19,C[C@@H]1CN([C@H](C)CO)C(=O)c2cc(NC(=O)Nc3ccc4c(c3)OCO4)ccc2O[C@H]1CN(C)Cc1ccc(Cl)c(Cl)c1,inactive: 1
20,Cc1ccc(S(=O)(=O)N(C)C[C@@H]2Oc3c(NC(=O)NC(C)C)cccc3C(=O)N([C@H](C)CO)C[C@@H]2C)cc1,inactive: 1

row,SMILES,relative growth
1,Nc1cc(C(=O)N2CCCC2)ccn1,inactive: 1.01
2,COc1ccc(S(=O)(=O)N(C)C[C@H]2OCCCC[C@H](C)Oc3ccc(NC(=O)Nc4ccccc4)cc3C(=O)N([C@@H](C)CO)C[C@H]2C)cc1,inactive: 1.05
3,C[C@@H]1CN([C@@H](C)CO)C(=O)c2cccc(NS(=O)(=O)c3ccccc3)c2O[C@H]1CN(C)Cc1ccc(Oc2ccccc2)cc1,inactive: 1.02
4,CC(=O)N[C@@H](Cc1cccc(F)c1)C(=O)O,inactive: 1.04
5,CCCNC(=O)Nc1ccc2c(c1)OC[C@H](C)N(Cc1ccc(-c3ccccn3)cc1)C[C@H](C)[C@H](OC)CN(C)C2=O,inactive: 1
6,C[C@@H]1CN([C@@H](C)CO)C(=O)c2cc(NC(=O)c3ccncc3)ccc2O[C@@H]1CN(C)S(=O)(=O)c1cccs1,inactive: 1.03
7,C[C@@H]1CN([C@H](C)CO)C(=O)c2cccc(NC(=O)c3ccncc3)c2O[C@H]1CN(C)S(=O)(=O)c1cccs1,inactive: 0.984
8,Cc1noc(C)c1NC(=O)Nc1ccc2c(c1)C(=O)N([C@H](C)CO)C[C@@H](C)[C@@H](CN(C)C(=O)NC1CCCCC1)OCCCC[C@H](C)O2,inactive: 1.02
9,O=C(Cc1n[nH]c(=O)[nH]1)NCc1n[nH]c2c1CCCCC2,inactive: 1.03
10,Cc1ccc(S[C@]2(C(=O)NCC(F)(F)F)CC(=O)N(Cc3ccccc3Cl)[C@@H]2c2ccc(CO)cc2I)cc1,inactive: 0.918
11,CCCNC(=O)N1C[C@@H](C)[C@@H](OC)CN(C)C(=O)c2ccc(NS(=O)(=O)CC(F)(F)F)cc2OC[C@@H]1C,inactive: 0.977
12,Cc1noc(C)c1NC(=O)Nc1cccc2c1O[C@H](CN(C)S(C)(=O)=O)[C@H](C)CN([C@H](C)CO)C2=O,inactive: 1.01
13,COc1ccccc1NC(=O)N(C)C[C@H]1Oc2ncc(Br)cc2C(=O)N([C@@H](C)CO)C[C@@H]1C,inactive: 0.979
14,CN1CCC[C@@H](CC2c3ccccc3Sc3ccccc32)C1,inactive: 0.951
15,C[C@@H]1CCCCO[C@H](CN(C)C(=O)Nc2ccc(C(F)(F)F)cc2)[C@@H](C)CN([C@H](C)CO)C(=O)c2cc(NC(=O)Nc3ccc4c(c3)OCO4)ccc2O1,inactive: 1.05
16,COc1ccc(S(=O)(=O)N(C)C[C@@H]2Oc3ccc(NC(=O)C4CC4)cc3CC(=O)N([C@H](C)CO)C[C@@H]2C)cc1,inactive: 0.973
17,COc1ccc(NC(=O)Nc2ccc3c(c2)C(=O)N([C@@H](C)CO)C[C@@H](C)[C@H](CN(C)S(=O)(=O)c2c(C)noc2C)OCCCC[C@H](C)O3)cc1,inactive: 1.02
18,C[C@@H]1CCCCO[C@H](CN(C)S(=O)(=O)c2cccs2)[C@H](C)CN([C@@H](C)CO)C(=O)c2cc(NC(=O)NC3CCCCC3)ccc2O1,inactive: 1.01
19,C[C@@H]1CCCCO[C@@H](CN(C)C(=O)Cc2ccccc2)[C@@H](C)CN([C@@H](C)CO)C(=O)c2cc(NC(=O)Nc3ccccc3)ccc2O1,inactive: 1
